Reference: PubChem BioAssay AID2202238 (Ras Initiative Chemistry Research Team, Frederick National …, 2025)
The other results are listed elsewhere or left out. These are further read-outs of the screen, such as a control signal, another cell line or another target. No call is given for them.

Molecular target: GTPase KRas (Homo sapiens) (UniProt P01116)
Assay: Fragment capture on engineered cysteines, share of protein labelled (AID 2202238)
Design: protein at 5 µM with 500 µM competing thiol for 1.5 h
Conditions: KRAS G12D cysteine mutants, disulfide tethering, MALDI-TOF labeling, stronger effect = higher value, fragment at 500 µM
[1] = measured here: G75C mutant labeling
[2] = measured here: H94C mutant labeling
[3] = measured here: I36C mutant labeling
[4] = measured here: L120C mutant labeling
[5] = measured here: M67C mutant labeling
[6] = measured here: M72C mutant labeling
[7] = measured here: N86C mutant labeling
[8] = measured here: P121C mutant labeling
[9] = measured here: S122C mutant labeling
[10] = measured here: S136C mutant labeling
[11] = measured here: G60C mutant labeling
[12] = measured here: N26C mutant labeling

UniProt P01116, sequence (P01116 whole entry, looked up, the tested form may be a part): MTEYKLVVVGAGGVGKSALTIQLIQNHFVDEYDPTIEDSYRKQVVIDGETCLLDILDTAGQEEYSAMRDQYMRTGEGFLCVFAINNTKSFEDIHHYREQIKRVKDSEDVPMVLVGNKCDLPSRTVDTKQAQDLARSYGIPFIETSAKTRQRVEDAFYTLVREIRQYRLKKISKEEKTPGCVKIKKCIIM

SMILES	percent labeling [1]	percent labeling [2]	percent labeling [3]	percent labeling [4]	percent labeling [5]	percent labeling [6]	percent labeling [7]	percent labeling [8]	percent labeling [9]	percent labeling [10]	percent labeling [11]	percent labeling [12]
O=C(CCS)NC1CCN(CCc2ccccc2)CC1	14.6%	41.3%	58.7%	35.3%	55.3%	32.5%	32.1%	39.5%	37.5%	62.7%	–	–
O=C(CCc1cccc(Br)c1F)NCCS	19.9%	29.7%	25.9%	28.7%	31.5%	50.6%	17.2%	27.6%	20.7%	37.5%	47.9%	34.6%
O=C(NCCS)C1(c2cccc(Cl)c2)CCCC1	17.6%	16.8%	13.3%	25.2%	16.5%	33.7%	14.9%	16%	14.3%	22.1%	42.7%	26.3%
CC(C)(C(=O)NCCS)c1csc(-c2c(F)cccc2F)n1	14.5%	24.3%	11.2%	21%	18.9%	23.9%	11%	15.3%	12.5%	25.6%	34%	30.5%
CN(CCCC(=O)NCCS)C(=O)c1ccncc1	9.1%	31%	23.7%	32.7%	32.2%	10.2%	24.5%	32.8%	27.5%	38.1%	24.8%	34.9%
O=C(NCCS)C1CCc2nc(C(F)(F)F)cn2C1 (stereo not drawn)	12.4%	36%	35%	33.8%	35.1%	14.3%	27.1%	33.4%	28.8%	40.6%	34.5%	40.6%
Cc1nc(-c2cccs2)sc1C(=O)NCCS	16.1%	16%	11.7%	18.6%	15.2%	51.4%	15%	20.9%	14.3%	17.9%	23%	31.8%
O=C(CCS)NC1(c2nccs2)CCCC1	11.6%	40.3%	37.4%	35.9%	31.4%	23.8%	27%	36.1%	37.6%	54.4%	–	–
O=C(CCS)Nc1cc(-c2ccccc2)nn1Cc1ccccc1	11.8%	11.6%	11.5%	10.8%	9.6%	39%	15.8%	11.5%	6.2%	13.3%	–	–
O=C(Cn1c(-c2ccccc2)cc2ccccc21)NCCS	19.1%	18.7%	12.9%	26.4%	12.2%	18.7%	8.1%	16.1%	7.4%	12.7%	37.4%	18.8%
Cc1nc2c(C(N)=O)ncn2c(C)c1CCC(=O)NCCS	11%	26.8%	24.2%	23%	26.5%	10.7%	14.7%	24.4%	15.9%	34.9%	33.4%	33.3%
O=C(NCCS)c1cnc2ccccc2n1	24.4%	24.7%	17.7%	15.6%	19.5%	48.7%	15.7%	23.9%	22%	40%	–	–
O=C(Cn1c(-c2cccc(Cl)c2Cl)nc2ccccc21)NCCS	39.8%	13.2%	14.8%	25.8%	27.9%	41.9%	10%	14.5%	5.8%	39.8%	47.1%	23%
Cc1cc(NC(=O)CCS)cnc1NC(=O)c1cccc(O)c1	16.4%	23.4%	33.9%	19.6%	28.5%	32.2%	19%	21.6%	23.1%	43.8%	–	–
O=C(NCCS)c1nc(Br)cs1	22.5%	33.3%	14.1%	26.3%	18.8%	42.7%	19.3%	21%	18%	30.1%	35.1%	32.2%
Cc1nc(=O)[nH]c(C)c1CCC(=O)NCCS	4.9%	18.3%	17.3%	21.1%	15.2%	6%	12.6%	27.8%	15.2%	28.4%	20%	20.1%
O=C(CCNC(=O)Cc1ccccc1)NCCS	10%	32.1%	31.6%	42.2%	35.2%	25.5%	23.1%	35.5%	31.5%	50.3%	23.8%	32.4%
O=C(CCS)N1CCCCC1c1noc(=O)[nH]1 (stereo not drawn)	8%	20.8%	21.1%	41.4%	19.4%	12.1%	29.3%	31.3%	42.9%	41.1%	–	–
Cc1c(C(=O)NCCS)[nH]c(=O)c2ccccc12	3.7%	9.4%	15.2%	15.5%	21.6%	41.9%	23.8%	37.2%	18.2%	35.5%	33.7%	40.9%
O=C(NCCS)C1CCN(S(=O)(=O)c2ccc(OC(F)(F)F)cc2Cl)CC1	10.6%	5.3%	3.2%	6.5%	8.6%	6%	5.7%	4.1%	0%	9.1%	13%	16.7%
O=C(NCCS)c1coc(-c2ccc(F)cc2)n1	13.4%	14.8%	7.1%	17.3%	8.1%	33.3%	7.4%	13.2%	8.9%	20%	22.3%	29.5%
Cc1csc(Nc2ccc(C(=O)NCCS)cc2)n1	9.8%	12.4%	8.5%	16.4%	14.5%	36.8%	6%	11.9%	9.5%	15.5%	18.7%	29.9%
CC(C)(C)OC(=O)C1CC(O)(C2CCN(C(=O)CCS)CC2)C1 (stereo not drawn)	10.1%	29.4%	24.8%	31.4%	35.2%	23.9%	23.7%	28.3%	32.7%	50.6%	–	–

SMILES	percent labeling [1]	percent labeling [2]	percent labeling [3]	percent labeling [4]	percent labeling [5]	percent labeling [6]	percent labeling [7]	percent labeling [8]	percent labeling [9]	percent labeling [10]	percent labeling [11]	percent labeling [12]
O=C(NCCS)c1nsc2cc(Br)ccc12	11.9%	14.4%	11%	11.4%	10.3%	43.4%	9.7%	12.5%	6.4%	11.7%	17.8%	25.9%
O=C(NCCS)c1cnn(-c2cccc(Br)c2)c1	6.7%	6.7%	8.7%	6%	6.2%	32.1%	8.3%	8.1%	4.1%	6.9%	9.7%	23.4%
O=C(NCCS)C1(c2cccs2)CCCCC1	14.3%	19.2%	15.1%	27.2%	17.5%	38.9%	11.8%	18.6%	13.4%	25.9%	46%	26.5%
CC(C)(C)c1noc2ncc(C(=O)NCCS)cc12	18.5%	24.6%	17.3%	21.3%	17.6%	32.2%	16.9%	18.3%	15.8%	38.5%	27.6%	29.6%
O=C(CCS)NCCC1CN(c2ncnc3[nH]ncc23)c2ccccc21 (stereo not drawn)	5.4%	15.9%	20.9%	7.8%	17%	21.8%	0%	9.1%	4.1%	35.2%	–	–
COc1ccc2[nH]c(C(=O)NCCS)cc2c1OC	18%	19.5%	20.3%	23%	17.5%	39%	18.7%	16.5%	17.4%	25.3%	27.3%	35.1%
O=C(NCCS)c1cc(C2CC2)nc2onc(-c3ccccc3)c12	7%	9.6%	8%	6.8%	7.6%	20.6%	4.1%	7.8%	4.1%	15.5%	34.1%	19.9%
COc1ccc(Br)cc1-c1nc(C(=O)NCCS)cs1	38.1%	12.6%	9.2%	13.8%	6%	53%	8.8%	14.4%	6.5%	21.2%	30%	33.2%
CC(C)(C(=O)NCCS)c1ccc(Cl)c(Cl)c1	15.8%	16.9%	12.4%	21.8%	17.8%	33.2%	13.7%	15.5%	12.5%	21.4%	39.3%	28.2%
Cc1nc2sccn2c1C(=O)NCCS	31.3%	51.4%	28.7%	33.2%	37.3%	53%	34%	33.1%	35.3%	60.8%	45.8%	52.1%
Cc1cc(CC(C)(C)C(=O)NCCS)ccc1Br	13.4%	13.1%	8%	9.6%	11.4%	26.3%	9.8%	10.5%	6.6%	12.6%	32.8%	20.7%
CC1CCN(c2cc(C(=O)NCCS)ccn2)C1 (stereo not drawn)	20.8%	24.9%	17.2%	21.9%	20.2%	60.8%	13.6%	15.5%	13.8%	46.3%	28.1%	49%
Cc1ncc(Cc2cccc(C(=O)NCCS)c2)s1	18.5%	28.6%	18.2%	27%	19.6%	48.5%	18.1%	19.3%	16%	30%	37%	41%
O=C(NCCS)C1COc2ccc(O)cc2O1 (stereo not drawn)	16.3%	32%	28.7%	37.7%	34.6%	36.1%	33.2%	28.7%	31.6%	55.2%	48.1%	41.4%
O=C(CC1(N2CCOCC2)CCCC1)NCCS	8%	26.3%	15.4%	19.6%	24.8%	14.9%	18.6%	22%	21%	27.6%	20.5%	20.9%
O=C(CCS)Nc1ccc2nc(C(F)F)[nH]c2c1	14.3%	32.3%	33.5%	32.5%	31.9%	32.5%	18.9%	30.3%	28%	48.9%	–	–
Cn1ccnc1[C@@H]1OCCC[C@H]1C(=O)NCCS	8.2%	31.4%	18.7%	29.9%	25.2%	8.5%	21.1%	32.3%	22.2%	37.3%	22.2%	26.8%
O=C(NCCS)C1(C(F)(F)F)CCOCC1	10.5%	25.7%	23.5%	27.7%	24.5%	23.2%	37.3%	27%	30.8%	34.7%	30.8%	31.2%
CO[C@H]1CCN(Cc2nc(C(=O)NCCS)co2)C1	9.2%	27.5%	21.8%	35.3%	25%	13.3%	22.7%	23.9%	25.5%	33.5%	19.2%	32.2%
Cc1sc(NC(=O)CCS)nc1-c1ccc2c(c1)CCC(=O)N2	15.8%	14.5%	15.2%	8.6%	11.4%	52%	11.3%	9.4%	2.8%	22%	–	–
Cc1nnc(CN(C)CC(=O)NCCS)n1C	0%	13.3%	10.7%	10.9%	16.7%	0%	7.2%	14.4%	16.9%	21.4%	8.2%	16.1%
O=C(CCS)NCc1nc(-c2nn[nH]n2)cs1	14.6%	25.5%	28.9%	34.6%	34%	15.7%	32.9%	35.4%	37.7%	40.9%	–	–
